According to the supplement of paper PMC3334620:
Over roughly 33,000 sequences, “E-score (-0.5 to 0.5)” has its median near -0.032; the highest 2% begin near 0.36. The list shows a part of the results.

Biological target: T1, Sko1 (UniProt Q02100)
T1 sequence: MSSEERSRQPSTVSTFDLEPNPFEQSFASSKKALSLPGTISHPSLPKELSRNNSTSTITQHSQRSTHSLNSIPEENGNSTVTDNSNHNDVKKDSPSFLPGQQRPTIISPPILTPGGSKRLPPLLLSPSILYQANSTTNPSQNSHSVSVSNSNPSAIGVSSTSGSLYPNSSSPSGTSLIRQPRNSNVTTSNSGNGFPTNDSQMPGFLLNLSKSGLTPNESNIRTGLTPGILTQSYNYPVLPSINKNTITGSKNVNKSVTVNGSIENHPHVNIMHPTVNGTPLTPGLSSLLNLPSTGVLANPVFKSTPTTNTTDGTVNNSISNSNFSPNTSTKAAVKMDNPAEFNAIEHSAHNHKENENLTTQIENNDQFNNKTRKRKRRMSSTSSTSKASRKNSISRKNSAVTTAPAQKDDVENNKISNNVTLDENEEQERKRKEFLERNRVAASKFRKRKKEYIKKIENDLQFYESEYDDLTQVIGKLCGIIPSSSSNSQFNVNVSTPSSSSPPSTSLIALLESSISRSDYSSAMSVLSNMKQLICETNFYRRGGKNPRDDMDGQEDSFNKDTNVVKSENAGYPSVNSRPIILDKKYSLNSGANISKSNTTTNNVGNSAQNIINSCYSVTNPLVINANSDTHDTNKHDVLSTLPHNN
Experiment: PBM E-score (8-mer binding enrichment) (E-score (-0.5 to 0.5)); higher = stronger / more preferred TF binding; most listed sequences are background and not binding sites
Conditions: protein concentration: 200 nM; construct: GST-full length
Procedure, shortened: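 PURExpress in vitro transcription/translation supplied GST-tagged yeast transcription factors, either full-length or DNA-binding domain. Applied at about 100-200 nM to universal all-10-mer Agilent arrays double-stranded by primer extension, the bound protein was detected with fluorescent anti-GST. E-scores, modified Wilcoxon-Mann-Whitney statistics, were given by the Universal PBM Analysis Suite to ungapped eight-base words pooled with their reverse complements after masliner normalisation.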

| Sequence | PBM E-score |
| --- | --- |
| CGAGAACC | -0.0241 |
| CCCCTAGG | -0.328 |
| GAGAGCAC | -0.197 |
| GACAGTAC | 0.0679 |
| ACCGTTCT | -0.209 |
| CTTAGTTC | 0.0167 |
| GAATCTAC | 0.11 |
| GAGTGCAA | -0.0317 |
| AAGACGGC | -0.219 |
| TCAAAGGA | -0.0321 |
| ATGTTATG | 0.257 |
| CGCAATGC | 0.257 |
| ACCACAGT | 0.0256 |
| GTAGATAC | 0.215 |
| CACCACTA | 0.0347 |
| CGCAGTGA | 0.122 |
| CAGGACCC | -0.221 |
| ATTGTAAC | 0.0439 |
| CCACGAAC | 0.15 |
| ACATGACG | 0.474 |
| CCAGGACG | 0.0314 |
| GCAGGTCC | -0.172 |
| CAAAATTA | 0.166 |
| CTGCTTCA | -0.228 |
| CCCCAAGG | -0.298 |

| Sequence | PBM E-score |
| --- | --- |
| CCAACTGA | -0.0126 |
| AAACATGT | 0.184 |
| CGTCATAA | 0.487 |
| GTTGCACA | 0.0444 |
| AAATCCAC | 0.0315 |
| AGAGCTTG | -0.0699 |
| ATGAGAGG | -0.224 |
| ATTCACAG | -0.0319 |
| ACGAAGAA | 0.295 |
| AGCCCGTA | -0.134 |
| AACGTTTA | 0.31 |
| GCCACTCC | -0.277 |
| GTACGATA | 0.287 |
| ACGGAATA | 0.0427 |
| ACGCCGGA | -0.276 |
| AAACACCC | -0.0918 |
| CCCGTCGC | -0.262 |
| ACTGCTAG | -0.263 |
| AGACTTTG | -0.0547 |
| AGGGGGGG | -0.49 |
| GATCAGTA | 0.235 |
| AATTTTGA | 0.203 |
| CCAAGGAA | -0.256 |
| ACTATGGA | -0.0882 |
| AAAGTGTC | -0.118 |

| Sequence | PBM E-score |
| --- | --- |
| CCCGTCGA | -0.111 |
| GATAAAAA | 0.155 |
| ATATACTG | 0.125 |
| ATTTTTTC | 0.133 |
| AGGCAAGC | -0.126 |
| CGAGATTC | 0.0133 |
| CATGATAC | 0.239 |
| CTGGCTGC | -0.304 |
| CGTCCCTA | 0.0473 |
| CCAAGTAG | -0.171 |
| CCTGGTCG | -0.159 |
| CTTTTGCC | -0.117 |
| GGACAGCA | -0.0316 |
| GAGACCCC | -0.309 |
| ATTTCCTG | 0.00514 |
| CGAATGAA | 0.13 |
| ATTGACAC | -0.00598 |
| AAATCTGC | 0.0449 |
| GCTCGCCC | -0.292 |
| CGGAAGGA | -0.178 |
| ACTGATAC | -0.0228 |
| ATGGTTCA | 0.0998 |
| GATAACTA | 0.0626 |
| CTAGCATA | 0.00426 |
| AACCCGTA | -0.132 |

| Sequence | PBM E-score |
| --- | --- |
| CTGAGCGC | -0.13 |
| AAGGAGTC | -0.258 |
| AAATGGTA | 0.0911 |
| CTTGATCC | -0.152 |
| AAAATGCC | -0.0218 |
| CCTTAGAA | 0.0918 |
| GTTCACAA | 0.119 |
| GCTGAGAC | -0.147 |
| GATGCAAA | 0.0565 |
| CGAGCTAA | -0.106 |
| GCTAATGA | 0.0704 |
| AGGCCTAT | -0.0177 |
| GCTGGAGA | -0.23 |
| AACATCCT | -0.0241 |
| GATGCCGA | -0.112 |
| GGCGTGAC | 0.213 |
| ACACTTGC | 0.0209 |
| GTATAACA | 0.255 |
| AGACGGCT | -0.354 |
| GCCGGGTA | -0.406 |
| CGTCCGGC | -0.191 |
| AAACCGGT | -0.262 |
| CCGGTTCA | -0.155 |
| GCGGTCCA | -0.323 |
| GAGGTCAA | -0.139 |

| Sequence | PBM E-score |
| --- | --- |
| GAAGAGGC | 0.0268 |
| ATCCAACC | -0.0108 |
| AGCGTAGG | -0.176 |
| CATCTAGA | 0.0155 |
| ACTTTTAG | -0.093 |
| TGTTAACA | 0.0988 |
| ACGTGTCG | 0.385 |
| GATTCGGA | 0.167 |
| GCTAGGAC | -0.112 |
| TCCCTCAA | -0.255 |
| GGATATAA | 0.156 |
| CCTACCCA | -0.215 |
| ATGGTCGC | -0.122 |
| CATTGGCC | -0.175 |
| ATACTCAG | 0.0206 |
| CCATGATA | -0.0203 |
| AGAGACCT | -0.0467 |
| GTGCACCA | 0.0396 |
| ACATAAGC | 0.119 |
| ACACACAT | 0.171 |
| GACTCTCA | -0.0645 |
| GCCTCGGA | -0.318 |
| CAGTTGAG | -0.211 |
| ACACAGCC | -0.0588 |
| GCTGCGAA | 0.0954 |

| Sequence | PBM E-score |
| --- | --- |
| CGACACAA | -0.0807 |
| AGATCACT | 0.0372 |
| GGTTCTTA | -0.0107 |
| TACGTCTA | 0.421 |
| GGCCGGGA | -0.343 |
| CAGATAGC | -0.186 |
| AATCACAT | 0.178 |
| AAGTACTT | -0.0466 |
| AGGTCGTC | 0.00284 |
| AAGCGTGG | -0.2 |
| AGAACGCT | -0.0919 |
| AAGAAATT | 0.0881 |
| GACCTACA | -0.0568 |
| GACACGGA | -0.224 |
| CCAATACG | 0.329 |
| TTCCAGAA | 0.0734 |
| CTTACCCA | -0.132 |
| GAGATACA | 0.0823 |
| AGGATCAG | -0.183 |
| CTGCAATA | 0.136 |
| ACTTCAGC | -0.146 |
| GATAGGAA | -0.0657 |
| TGTGACAA | 0.0956 |
| GGATTACC | 0.00812 |
| ACAGCAAC | 0.038 |

| Sequence | PBM E-score |
| --- | --- |
| GTTTCCTA | 0.11 |
| ATCCTAAG | -0.156 |
| AAAACGGA | 0.153 |
| CATTGTAC | 0.11 |
| CGTATCAC | 0.282 |
| AAAGACGT | 0.448 |
| CATGGTAG | -0.193 |
| GATACAAA | 0.112 |
| CAGCGGGG | -0.15 |
| ATTATCGA | 0.0217 |
| GGGGTCGA | -0.181 |
| GACTGAGC | -0.171 |
| CATCATAC | 0.377 |
| ATATCGAG | 0.0118 |
| ACGAAGCA | 0.152 |
| CCCTCCTA | -0.253 |
| AATGCTCT | 0.00824 |
| GCAAATAC | 0.276 |
| GCCTAGTA | -0.109 |
| CATTATAA | 0.0479 |
| AGAGTTAC | 0.101 |
| GATGGAAC | -0.0249 |
